Data: article PMC12040169 (PLOS Biology, 2025)
This is one part of the list.

system: T1, C. trachomatis L2/434/Bu expressing GFP (CTL2-GFP); set-up: species or system HeLa; C. trachomatis total inclusion area by high-content imaging, normalised to DMSO; conditions: total inclusion area; 28.5 h, 10 µM; inhibitor
T1 construct: L2/434/Bu GFP intracellular growth in HeLa cells
Outline: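 Post-fluorescence-read fixation, DNA staining with Hoechst and high-content imaging; GFP inclusion area and number per well, and nuclei counts, used as proxies for bacterial growth and host viability.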

Structure (SMILES)	% of control remaining
O=C(CC1CC1)N1CCCC2(CCN(C(=O)c3cc(F)c(F)cc3F)C2)C1 (stereo not drawn) [CBK131531]	97.5121
Cc1nnc(SCc2cc(=O)[nH]c(Nc3nc(C)c4cccc(C)c4n3)n2)s1 [CBK266740]	89.8828
CCN(C(=O)Cc1cc(OC)ccc1Br)c1cccnc1 [CBK305318]	30.8303
CCC1CCCCN1C(=O)c1ccccc1OC (stereo not drawn) [CBK083205]	90.7326
O=C(c1cc(F)c(F)cc1F)N1CCC2(CCCN(Cc3ccc(Cl)c(Cl)c3)C2)C1 (stereo not drawn) [CBK131990]	84.8705
CCC(SC1=NCCS1)C(=O)Nc1ccc(NC(C)=O)cc1 (stereo not drawn) [CBK266199]	132.948
COc1ccc(C(NC(=O)c2cn3ccsc3n2)[C@H]2C[C@H](O)C2)cn1 (stereo partly drawn) [CBK306744]	60.6146
Cc1cccc(NC(=O)CSc2ncnc3sc4c(c23)CCC(C)C4)c1 (stereo not drawn) [CBK265738]	81.6477
CN1CCC(=NNC(=O)CN(c2cccc(Cl)c2)S(=O)(=O)c2ccccc2)CC1 [CBK262489]	106.211
O=C(CSc1ccc2nnc(-c3ccc(F)cc3)n2n1)N1CCOCC1 [CBK287521]	117.577
Cc1nn(-c2ccccc2)c(O)c1Cc1c(Cl)cccc1Cl [CBK067760]	79.5205
O=C(O)COCC(=O)N1CCN(c2ccccc2Cl)CC1 [CBK268155]	109.56
C=C[C@H]1C[N@@]2CC[C@H]1C[C@@H]2CNS(=O)(=O)c1cccc2cccnc12 [CBK288751]	104.96
Cc1ccccc1C(=O)Nc1ccc(F)c(F)c1 [CBK058249]	112.041
CSc1nccc(N2CCC(NCCCn3ccnn3)CC2)n1 [CBK307076]	64.0293
Cc1ccc2c(c1)cc(C(=O)N1CCOC(C(=O)N3CCc4ccccc4C3)C1)n2C (stereo not drawn) [CBK286035]	116.742
CC(C)n1c(NCc2ccccc2)nc2c1c(=O)n(C)c(=O)n2C [CBK140094]	71.6036
CN1CCN(C(=O)c2ccsc2NS(=O)(=O)c2ccc(Oc3ccccc3)cc2)CC1 [CBK042277]	113.267
O=C(NCCO)C1(Cc2ccc(-c3ccccc3)cc2)CCNC1 (stereo not drawn) [CBK283043]	65.2151
O=C(CCn1cnc2ccccc2c1=O)Nc1ccc(S(=O)(=O)N2CCOCC2)cc1 [CBK267645]	109.251
COc1ccc(CNC2CCCc3ccccc32)c(OC)c1C (stereo not drawn) [CBK025778G]	94.6762

Structure (SMILES)	% of control remaining
c1ccc(-c2ccc(-c3cc(N4CCN(CCN5CCCC5)CC4)ncn3)cc2)cc1 [CBK091165]	178.95
Cc1cc(CNC(=O)Nc2ccc(F)c(-n3nnnc3C)c2)n(C)n1 [CBK305525]	44.6303
CCCNC(=O)C(C)NC(=O)C1=Cc2ccccc2OC1 (stereo not drawn) [CBK297937]	82.7734
CN1CCC(=NNC(=O)CN(c2cccc([N+](=O)[O-])c2)S(=O)(=O)c2ccccc2)CC1 [CBK262727]	104.115
CC(c1ncc(Br)cn1)N1CCN(Cc2noc(C(C)(C)C)n2)CC1 (stereo not drawn) [CBK306168]	41.2178
CCc1cc(C(=O)N2CCC(Oc3ccccc3F)CC2)n(C)n1 [CBK282172]	67.4526
CC(C)c1ccc(/C=C/C(=O)NCc2ccc3occc3c2)cc1 [CBK149620]	104.866
Nc1ncnc2c1C(c1ccc(Cl)cc1)c1c(ccc3ccccc13)O2 (stereo not drawn) [CBK263938]	82.9041
CCc1nn(CC(=O)N2CCCC(C)C2)c(=O)c2cc3occc3n12 (stereo not drawn) [CBK283657]	99.7997
O=C(CSc1nnc(-c2ccncc2)n1-c1ccccc1)N/N=C/c1c[nH]c2ccccc12 [CBK262776]	104.736
Cc1nc(C(F)(F)F)ccc1NC(=O)CSCC(=O)O [CBK056975]	77.1521
Cc1cc(=O)oc(-c2ccccc2)c1C#N [CBK004842]	80.8943
CN(C)S(=O)(=O)c1c(Cl)cccc1Cl [CBK091643]	65.0377
Cc1ccc(OCC(=O)NC(=S)Nc2cc(C(=O)O)ccc2C)cc1C [CBK264955]	102.194
COc1ccc(-c2cccc(Nc3cc(OC)c(OC)c(OC)c3)n2)cc1OC [CBK037634]	40.9415
Cc1ccc(OCCSc2nc3ccccc3n2CC(=O)O)c(C(C)C)c1 [CBK300483]	79.1471
Cc1n[nH]c(=O)c2noc(C)c12 [CBK000857]	97.7449
CCN(CC)C(=O)CCn1c(-c2cccnc2C)cc2cccnc21 [CBK282147]	90.8549
Cc1nc(C)n(CC(=O)N2CCc3sccc3C2c2ccco2)n1 (stereo not drawn) [CBK281649]	97.2728
Clc1ccc(Nc2nnc(-c3[nH]ncc3NCc3ccncc3)o2)cc1 [CBK288588]	109.155
CN(C)CCN(Cc1ccncc1)Cc1cc(F)cc(F)c1 [CBK283096]	105.883

Structure (SMILES)	% of control remaining
Cc1ccc(-c2cncc(N(C)CCN(C)C)n2)cc1C [CBK065990]	122.543
COCCn1c(SCc2cn3c(C)cc(C)nc3n2)nc(C)c1C [CBK306489]	41.2603
c1ccc(CCN2CCC(Cc3ccccc3)CC2)cc1 [CBK126434]	98.6256
CCC(C)(C)c1ccc(S(=O)(=O)Nc2cc(Cl)ccc2O)cc1 [CBK045243]	92.7285
O=C(CCn1c2ccccc2c2ccccc21)N1CCn2cnnc2C1 [CBK283645]	95.983
Cn1c(SCc2nnc(-c3ccccc3)o2)nnc1C(O)c1ccccc1 (stereo not drawn) [CBK269640]	104.834
O=C(Nc1ccc2oc(-c3cccnc3)nc2c1)c1ccc(-c2ccccc2)cc1 [CBK264035]	97.8939
O=C(CCn1c(-c2ccccn2)cc2cccnc21)NC1CCCC1 [CBK284965]	98.1755
CCn1cc(C(=O)NN)c(=O)c2cc(F)c(N3CCCC3)cc21 [CBK307146]	57.7844
FC(F)(F)Oc1ccc(CNc2nccnc2-c2cccs2)cc1 [CBK036806]	103.133
Cc1nc2ccc(C(=O)N3CCN(c4ccccc4)CC3)cn2c1N(C)C(=O)c1cccs1 [CBK146544]	98.9539
OC(CN(c1ccccc1)c1ccccc1)Cn1cnc2ccccc21 (stereo not drawn) [CBK261417]	97.3473
S=C(NCC1CCN(C(=S)NC2CCCCC2)CC1)NC1CCCCC1 [CBK004987]	82.6445
O=C(c1nc2ccccc2[nH]1)N1CCC(F)CC1 [CBK200278]	95.6004
CCCCN(C)CCNC(=O)c1ccc2c(c1)NC(=O)C(N1CCCCC1)S2 (stereo not drawn) [CBK071799]	75.7069
Cc1ccc(NC(=O)C(=O)NCCCn2ccnc2)cc1Cl [CBK264238]	100.801
COc1cc(CN2CCN(Cc3ccco3)CC2)cc(OC)c1OC [CBK074520G]	98.3776
O=C(c1ccc(-c2cnc3[nH]c(=O)n(CCc4cccnc4)c3n2)cc1)N1CCOCC1 [CBK064334]	113.296
O=C(O)c1ccc(N2C(=O)C(O)=C(C(=O)c3ccccc3)C2c2cccc([N+](=O)[O-])c2)cc1 (stereo not drawn) [CBK263760]	100.742
O=C(NCCO)Nc1ccc2nccnc2c1 [CBK027577]	4.122
Cc1c(C(=O)N2CCC(C(=O)c3cccnc3)CC2)oc2ccccc12 [CBK283954]	100.905

Structure (SMILES)	% of control remaining
NCCN(Cc1cccc(Cl)c1)C(=O)NC(c1ccccc1)c1ccccc1 [CBK046203C]	71.2747
CCOC(=O)CN(Cc1ccccc1)Cc1ccc(OC)cc1 [CBK126460]	95.8167
CS(=O)(=O)Nc1cc2ccccc2c(-c2ccc(OC(F)(F)F)cc2)n1 [CBK085757]	90.4236
COc1cc(/C=C/C(=O)O)cc(S(=O)(=O)N2CCOCC2)c1OC [CBK264078]	86.6275
Cc1[nH]c2ccc(C(=O)O)cc2c1CC(=O)O [CBK267080]	113.801
Brc1csc(CN2CCN3CCCC3C2C2CCCCC2)c1 (stereo not drawn) [CBK026298]	15.1958
CCCC(=O)N[C@@H](Cn1c(=O)oc2ccccc21)C(C)C [CBK284536]	101.6
COCC(=O)N1CCC(c2nc(C)n3c(C)csc23)CC1 [CBK285198]	92.8101
COc1ccc(C2=NN(CN3C(=O)C(=O)c4cc(Br)ccc43)C(c3cccc([N+](=O)[O-])c3)C2)cc1 (stereo not drawn) [CBK263490]	81.5066
CCOc1ccc(CCNC(=O)c2cnc(Nc3ccccc3OC)c3ccccc23)cc1OCC [CBK291185]	84.6769
CCOc1ccc2c(c1)N1C(=O)NC(C(F)(F)F)(C(F)(F)F)N=C1S2 [CBK025440]	60.3581
COC(=O)[C@@H]1Cc2ncn(C)c2CN1C(=O)c1ccc(C#N)cc1 [CBK288994]	110.804
CCNC(=O)c1cn(Cc2ccccc2)nn1 [CBK073904]	89.0809
CN(Cc1ccccc1)C(=O)c1c[nH]nc1C1CCCCN1Cc1ccccc1Cl (stereo not drawn) [CBK285936]	81.8914
Cc1noc(-c2cn(C)nc2C2CCCCN2CC2CC2)c1C (stereo not drawn) [CBK283408]	100.521
CC#CC1CCCC2N(c3ccccc3)CCN12 (stereo not drawn) [CBK028191]	61.5474
CCOc1ccc(-c2n[nH]c(=S)n2CCC(=O)N2CCCN(Cc3ccc(C#N)cc3)CC2)cc1 [CBK297893]	68.4204
COc1ccc(CN2CCN(C(=O)c3cccc(F)c3)CC2)cc1 [CBK304396]	84.6839
